Experimental data as given in patent US20260015418A1 (ABL BIO, published 2026).

Legend:
[1] = target: T1, human ROR1 on cells (NCI-N87, CHOK1-hROR1, AGS, CHO-huROR1-huB7-H3) (human, UniProt Q01973 30-937); assay: flow cytometry on ROR1-positive NCI-N87 cells, FITC-conjugated anti-human IgG (Fc specific)
T1 construct: whole, on cells; also called cell surface ROR1
Protocol: In particular, Jurkat cells overexpressing human 4-1BB (Promega) and NCI-N87 cells, a human ROR1 positive cell line (ATCC), were seeded into V-bottom 96-well plates (96 Well Plate-RV, Bioneer, 910D09) and washed with 200 μl/well of 1% BSA buffer. Fourfold dilutions of the test materials (bispecific antibodies) starting from 100 nM were added to each well and incubated for 1 hour at 4° C. The plates were then washed with 1% BSA buffer. To each well, FITC-conjugated anti-human IgG (Fc specific) (Sigma, F9512) dissolved in 1% BSA buffer was added and incubated for 1 hour at 4° C. The plates were washed again with 1% BSA buffer. The mean fluorescence intensity (MFI) of FITC was measured by flow cytometry. Four-parameter logistic curve analysis was performed on the obtained MFI values using GraphPad software.

[2] = target: T2, human ROR1-Fc protein (Sino Biological, 13968-H02H1) (human, UniProt Q01973 in part); assay: DACE ELISA (ROR1-Fc coated, 4-1BB-His detection); 3 days in human serum at 37°C
T2 construct: Bought protein; also called human ROR1 protein (13968-H02H1, Fc tag)
Protocol: (§1) A 96-well microtiter plate (NUNC, 446612) was coated overnight at 4° C. with human ROR1-Fc protein (Sinobio, 13968-H02H1) at 100 ng/well in PBS. The plate was then incubated with 1% BSA buffer (1×PBS, 1% (v/v) BSA) at 200 μl/well at 37° C. for 2 hours to block non-specific binding. Thereafter, the blocking solution was discarded and fourfold dilutions of each bispecific antibody test material (starting from 100 nM) were added to the wells. The plate was incubated at 37° C. for 2 hours and then washed with PBS-T (1×PBS/0.05% (v/v) Tween-20). Subsequently, human 4-1BB-His protein (Sinobio, 10041-H08H) dissolved in 1% BSA buffer was added at 100 ng/well and incubated at 37° C. for 1 hour. After washing with PBS-T, the plate was incubated with anti-His HRP (Roche, Cat: 11965085001) at 37° C. for 1 hour. After washing, color development was performed with TMB (tetramethylbenzidine, Sigma, T0440) and the color development was stopped with 0.5M sulfuric acid (Samchun Chemicals, S1410), and the absorbance (OD) at 450-650 nm was read using a spectrophotometer. Four-parameter logistic curve analysis was performed using GraphPad software.

[3] = target: T2, human ROR1-Fc protein (Sino Biological, …); assay: DACE ELISA; 0 day in human serum, against day 0
Protocol: as §1

[4] = target: T2, human ROR1-Fc protein (Sino Biological, …); assay: DACE ELISA; 14 days in monkey serum, against day 0
Protocol: as §1

[5] = target: T2, human ROR1-Fc protein (Sino Biological, …); assay: SPR Biacore T200, ROR1-Fc amine-coupled on CM5, antibody as analyte, bivalent analyte model (Kd1/Ka1)
Protocol: (§2) The binding affinity of both BA6M11(WT)x1A10M12 and BA6M11 (NA)x1A10M12 clones, which are anti-ROR1/anti-4-1BB bispecific antibodies comprising BA6M11 clone, was assessed using surface plasmon resonance (SPR). The antigens used for this assessment were human ROR1 protein (13968-H02H1, Fc tag) from Sino Biological and human 4-1BB protein (9220-4B-100, his tag) from R&D Systems. The measurements were conducted on a Biacore T200 instrument (Cytiva).
(§3) The CM5 chip (Cytiva, BR100530) was coated with a 5 μg/mL human ROR1 protein dilution in Acetate 4.0 (Cytiva, BR100349) using the amine coupling method (Cytiva, BR100050) to achieve a surface density of about 80 RU. […] These diluted antibody samples were then flowed over the human ROR1 protein-immobilized CM5 chip for approximately 60 seconds to conjugate the sample to the antigen, followed by flowing HBS-EP buffer (1×) over the sample-antigen complex for 180 seconds to dissociate the sample from the antigen. […] Binding affinity was analyzed using the bivalent analyte model to derive the primary association rate constant (Ka1) and primary dissociation rate constant (Kd1). The equilibrium dissociation constant (KD) was calculated by dividing the primary dissociation rate constant by the primary association rate constant, and this value was used to represent the final binding affinity.

[6] = target: T2, human ROR1-Fc protein (Sino Biological, …); assay: DACE ELISA: ROR1-Fc coated, detection with 4-1BB-His and anti-His HRP
Protocol: Briefly, 96-well microtiter plates (NUNC, 446612) were coated overnight at 4° C. with human ROR1-Fc protein (Sinobio, 13968-H02H1) in PBS at 10 ng/well, then the plates were incubated with 1% BSA buffer (1×PBS, 1% (v/v) BSA) at 200 μl/well for 2 hours at 37° C. to prevent nonspecific binding. After blocking nonspecific binding, the wells were washed, and serial dilutions of the bispecific antibody test materials (starting at 100 nM) were added to each well. After incubation for 2 hours at 37° C., the plates were washed with PBS-T (1×PBS/0.05% (v/v) Tween-20). Then, human 4-1BB-His protein (Sinobio, 10041-H08H) dissolved in 1% (v/v) BSA was added to each well at 100 ng/well and incubated for 1 hour at 37° C. After washing the plates with PBS-T, anti-His HRP (Roche, Cat: 11965085001) was added and incubated for 1 hour at 37° C. After washing, color development was conducted TMB (tetramethylbenzidine, Sigma, T0440) and the reaction was stopped with 0.5M sulfuric acid (Samchun Chemicals, S1410), followed by reading absorbance (OD) at 450-650 nm in a spectrophotometer. Four-parameter logistic curve analysis was performed using GraphPad software.

[7] = target: T2, human ROR1-Fc protein (Sino Biological, …); assay: SPR Biacore T200, ROR1-Fc amine-coupled on CM5, antibody as analyte, bivalent analyte model (Kd1)
Protocol: as §2, §3

B1: BA6M11(NA)x1A10M12 anti-ROR1/anti-4-1BB bispecific antibody (bispecific antibody, human IgG1, lambda)
heavy: EVQLLESGGGLVQPGGSLRLSCAASGFTFSNYDMSWVRQAPGKGLEWVSAIYHSGSSKYYADSVKGRFTISRDNSKNTLYLQMNSLRAEDTAVYYCARGGSGAWDTGFDYWGQGTLVTVSSASTKGPSVFPLAPSSKSTSGGTAALGCLVKDYFPEPVTVSWNSGALTSGVHTFPAVLQSSGLYSLSSVVTVPSSSLGTQTYICNVNHKPSNTKVDKKV[human IgG1 Fc with changes not shown]GSGSGSGSGSGSGSGSGSQSVLTQPPSASGTPGQRVTISCSGSSSNIGNNYVTWYQQLPGTAPKLLIYADSHRPSGVPDRFSGSKSGTSASLAISGLRSEDEADYYCATWDYSLSGYVFGCGTKLTVLGGGGSGGGGSGGGGSGGGGSEVQLLESGGGLVQPGGSLRLSCAASGFTFSSYDMSWVRQAPGKCLEWVSWISYSGGSIYYADSVKGRFTISRDNSKNTLYLQMNSLRAEDTAVYYCARDAQRNSMREFDYWGQGTLVTVSS
light: QSVLTQPPSASGTPGQRVTISCSGSSSNIGSNDVSWYQQLPGTAPKLLIYYENNRPSGVPDRFSGSKSGTSASLAISGLRSEDEADYYCGAWDDSLSGYVFGGGTKLTVLGQPKAAPSVTLFPPSSEELQANKATLVCLISDFYPGAVTVAWKADSSPVKAGVETTTPSKQSNNKYAASSYLSLTPEQWKSHRSYSCQVTHEGSTVEKTVAPAECS
notes: As BA6M11(WT)x1A10M12 but with the N297A (NA) mutation in the Fc; also called BA6M11(NA) × 1A10M12
- EC50 (read off the curve) [1]: ~0.2 nM
- EC50 [2]: 0.22 nM
- EC50 Ratio (%) [3]: 100%
- EC50 Ratio (%) [4]: 76%
- Kd [5]: 6.65 nM
- EC50 [6]: 0.268 nM
- koff [7]: 0.00152 s⁻¹
